Out of some 46,000 compounds screened, about 60 (0.1%) were called active. Inconclusive results (about 3%) are left out. The call rests on the fitted dose curve; in most records, active means well fitted inhibition curve with a large enough effect; inconclusive means small, poorly fitted or top-dose-only effect; inactive means no such curve, though single readings can be large or run the other way. This is one part of the list.
Experiment: Primary qHTS assay for Inhibitors of ovarian cancer metastasis using an organotypic tumor microenvironment (TME) model. Further: nearly all actives have a fitted effect of over 65% in size.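 On activity change, negative = inhibition: plate controls were DMSO wells for no effect and tomatine positive control wells for full effect.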
Settings: SKOV3ip1-GFP adhesion/invasion on 3D omental model, fluorescence; series mostly up to 45.8 µM; activity change, negative = inhibition: at the top concentration
How it was run: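 Adhesion/invasion was scored as fixed GFP-labeled SKOV3ip1 cell counts (488/509 nm), normalized to DMSO and tomatine controls. Cancer cells in serum-free medium, with four compound doses (0.36-46 umol/L), sat 2 hr at RT then 16 hr at 37 C on a 48 hr fibroblast/mesothelial/ECM culture.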

Activity change, negative = inhibition, inactive:
COc1ccc(NC(=O)c2ccc3c(c2)N(Cc2cccc(Cl)c2)C(=O)c2ccccc2S3=O)cc1Cl (stereo unspecified) -7.21%, COc1cccc(Cc2nc3ccccc3nc2SCC(=O)NCCc2ccccc2)c1 22.1%, CCc1ccc(NC(=O)CCn2c(-c3ccc(OC)cc3)cc(C(C)=O)c2C)cc1 -5.26%, COc1ccccc1NC(=O)NCCCN1CCN(c2ccc(F)cc2)CC1 0.615%, CCCN1CCN(CCCNC(=O)c2ccc3c(c2)sc2nc(-c4ccc(OC)cc4)cn23)CC1 -14.6%, Cn1c(SCC(=O)N2CCOCC2)ncc(C(=O)Nc2ccccc2)c1=O -12.6%, Cc1ccccc1Cn1c(CN2CCC(C(=O)NCc3cccnc3)CC2)cc2ccccc21 0.646%, O=C(NC[C@H](O)CO)c1ccncc1Nc1ccc(I)cc1F 17.5%, Cc1ccc2c(CNCC(C)c3ccccc3)c(C(=O)O)n(Cc3ccccc3C)c2c1 (stereo unspecified) 1.82%, O=C(O)c1ccc2cc(-c3ccc(O)c(C45CC6CC(CC(C6)C4)C5)c3)ccc2c1 5.46%, Cc1nc2ccccn2c(=O)c1NC(=O)c1cccc(F)c1 -10.1%, COC(=O)c1ccccc1NC(=O)Cn1cnc2sc(C)c(S(=O)(=O)N3CCC(C)CC3)c2c1=O -5.59%, COc1cccc(Nc2nc3cc(C)ccc3nc2NS(=O)(=O)c2ccc(Cl)cc2)c1 16.7%, Cc1ccc(CNC(=O)Cn2c(SCC(=O)Nc3ccc(F)cc3)nc3ccccc32)cc1 -31%, Cc1cc(OCC(=O)NCCc2nc3ccccc3[nH]2)cc(C)c1Cl -3.96%, COc1cccc(C(=O)NCCc2csc3nc(-c4ccccc4F)nn23)c1OC 5.92%, CCOC(=O)c1cc(-c2ccc(OC)cc2)n(CCC(=O)NCCc2ccccc2)c1C 2.06%, Cc1ccccc1N(C)S(=O)(=O)c1nnc(NC(=O)c2ccco2)s1 0.255%, O=S(=O)(c1ccccc1)c1nc(-c2ccccc2Cl)oc1N1CCCCCC1 -6.89%, Cc1ccc(CNC(=O)C(C)n2c(=O)cc(C(F)(F)F)c3c(C)nn(C)c32)cc1 (stereo unspecified) -4.1%, CCn1nc(C)c(CCN(C)C(=O)Nc2cccc(Cl)c2C)c1C 1.91%, Cc1cccc(C(=O)N2CCc3cc(CNC(=O)c4cc5ccccc5[nH]4)ccc32)c1 4.41%, Cc1ccc(S(=O)(=O)C(CNC(=O)c2c(F)cccc2F)c2ccco2)cc1 (stereo unspecified) -3.89%, O=C(NCc1ccccc1)C(=O)Nc1c2c(nn1-c1ccc(F)cc1)CSC2 2.98%, COc1ccc(NC(=O)CN2C(=O)COc3ccc(S(=O)(=O)N4CCOCC4)cc32)cc1 -7.68%, COc1cccc(NC(=O)C2CCC(CNS(=O)(=O)c3ccc4c(c3)CCCC(=O)N4)CC2)c1 (stereo unspecified) 25.4%, CCn1cc(CNC(=O)c2cc(-c3ccc(C)cc3)nc3ccc(Br)cc23)c(C)n1 3.31%, Cc1ccccc1-c1nc2scc(CCNC(=O)c3ccco3)n2n1 -2.17%, CCS(=O)(=O)N1CCc2cc(C(=O)NCc3ccccc3OC)ccc21 -4.06%, CCOc1ccc(CCNC(=O)C2CCCN(S(=O)(=O)N(C)c3ccc(F)cc3)C2)cc1 (stereo unspecified) 9.33%, Cc1sc2ncn(CC(=O)N3CCN(c4ccccc4F)CC3)c(=O)c2c1S(=O)(=O)N1CCC(C)CC1 2.27%, Cc1ccc2nc(/C(C#N)=C/c3ccccc3F)[nH]c2c1 3.46%, Cc1cccc(OCCSc2nnc(-c3cccs3)o2)c1 8.11%, Clc1ccccc1OCCSc1nnc(-c2cccs2)o1 -8.11%, O=C(CSc1nc(=O)n(Cc2ccco2)c2c1CCC2)NCc1ccccc1 -5.76%, COc1ccccc1CNC(=O)C1CCN(c2nc3ccc(C)cc3[nH]2)CC1 -5.59%, O=C(NC1CCCC1)c1ccc2c(=O)n(Cc3ccccc3)c(SCc3ccccc3F)nc2c1 -6.77%, COc1ccc(Cl)cc1-n1cc(-c2ccccc2)nc1SCC(=O)Nc1ccc(C)cc1 1.76%, Cc1ccc(S(=O)(=O)c2nc(-c3ccc(F)cc3)oc2SCC(=O)NC2CCCCC2)cc1 -2.69%, C[C@]12CCC(=O)C=C1CC[C@@H]1[C@H]2[C@@H](O)C[C@@]2(C)[C@H]1CC[C@]2(O)C(=O)CO 33.6%, CCC(Cn1nnc2ccccc2c1=O)NC(=O)Nc1ccccc1OC (stereo unspecified) -5.74%, CCc1ccc(CNC(=O)CCCn2ccc3cc(S(=O)(=O)N4CCCC4)ccc32)cc1 6.66%, CCOc1ccc(CCNC(=O)c2cc3c(-c4ccccc4F)nn(C)c3s2)cc1 -0.922%, COc1ccc(Cn2cc(S(=O)(=O)c3ccc(C)cc3)c(=O)c3cc(F)ccc32)cc1 -4.55%, COc1ccc2c(c1)c(=O)c(C(=O)c1ccccc1)cn2CC(=O)Nc1ccc2c(c1)OCO2 2.77%, COc1ccc2c(CNCCc3ccc(SC)cc3)c(C(=O)O)n(Cc3ccc(F)cc3)c2c1 -14.5%, CCC(CC)C(=O)Nc1nnc(S(=O)(=O)N2CCCCCC2)s1 9.82%, CCN(CC)c1ccc(NC(=O)c2cc(C)nc3c2c(C)nn3-c2ccc(C)cc2)c(C)c1 1.34%, COc1ccc(C2c3[nH]c4ccccc4c3CCN2C(=O)CCC2CCCC2)cc1 (stereo unspecified) -8.1%, COc1ccc(CNC(=O)Cc2c(C)c3cc4c(C)coc4cc3oc2=O)cc1OC 18.3%, CC1CCN(S(=O)(=O)N2CCC(C(=O)NCc3ccccc3Cl)CC2)CC1 -2.97%, COC(=O)c1ccc(Nc2ncnc3c2cnn3C)cc1 -2.53%, CCOC(=O)c1ccc(NC(=O)c2cnn3c(=O)c4c(n(CC)c23)CCN(Cc2ccc(OC)cc2)C4)cc1 11.8%, Cc1cn2c(=O)cc(COC(=O)c3ccc(NC(=O)c4ccc(F)cc4)cc3)nc2s1 -4.96%, CCN(CC)C(=O)c1sc2c(c1C)c(=O)n(Cc1ccccc1)c(=O)n2Cc1ccccc1C 3.46%, COc1ccc(N2CCN(C(=O)CSc3nc(-c4ccc(C(C)C)cc4)no3)CC2)cc1 -7.53%, O=C(CNC(=O)c1ccccc1)OCc1cc(=O)n2nc(C3CCCCC3)sc2n1 6.56%, CCN(CC)C(=O)c1sc2c(c1C)c(=O)n(-c1ccc(C)c(C)c1)c(=O)n2Cc1cc(=O)n2ccccc2n1 3.29%, OCCn1cc(-c2cnc3nnn(Cc4ccc5ncccc5c4)c3n2)cn1 -21.7%, Cc1ccsc1CCN1C(=O)N(c2ccccc2)C(=O)C1CC(=O)Nc1ccc(Cl)cc1 (stereo unspecified) 3.45%, COc1ccc(-c2nc3scc(CCNS(=O)(=O)c4ccc(Oc5ccccc5)cc4)n3n2)cc1OC -0.856%, O=C(NCc1ccc(F)cc1Cl)c1cc(=O)[nH]c2ccc(S(=O)(=O)N3CCCCC3)cc12 -3.49%, COc1ccc(-c2nc3scc(CCNS(=O)(=O)c4ccc5c(c4)OCCO5)n3n2)cc1OC -12.7%, Cc1ncc([N+](=O)[O-])n1CC(C)O (stereo unspecified) 8.81%, COc1ccc(CNC(=O)Cc2c(C(=O)O)c(C)cn2C)cc1 1.26%, Clc1ccc(CN2CCN(c3ncnc4sc5c(c34)CCCC5)CC2)cc1Cl 2.03%, Cc1c(-c2ccccc2)c(=O)oc2ccc(OC(=O)N3CCOCC3)cc12 -9.09%, Cc1cc(C)cc(OCCSc2nc3ccc(NC(=O)c4cccs4)cc3s2)c1 -5.35%, CCOc1ccc(C(=O)Nc2c(C(=O)Nc3ccccc3OC)oc3ccccc23)cc1OCC -0.166%, CCOc1ccc(NC(=O)CSC2=Nc3ccccc3C3=NC(CC(=O)NCc4cccs4)C(=O)N23)cc1 (stereo unspecified) 15.3%, COc1ccc2c(C)c(CC(=O)NCCc3ccc(Cl)cc3)c(=O)oc2c1C -1.18%

outcome, inactive:
CC(=O)c1cccc(NC(=O)CN2C(=O)c3ccccc3Sc3ncccc32)c1, O=C(c1cnn(-c2cccc(F)c2)c1-n1cccc1)N1CCN(c2ccccc2F)CC1, Cc1c(C)n(Cc2ccccc2)c2ccc(C(=O)NCc3ccccc3F)cc12, COc1ccc(C(=O)Nc2cccc(-c3cn4ccsc4n3)c2)cc1OC, CCOC(=O)C1CCN(C(=O)Cn2nc(C)n3c(cc4sccc43)c2=O)CC1, CC1=C(C(=O)NCc2ccccc2Cl)C2(CCCCCC2)OC1=O, COc1ccc(NC(=O)/C=C\C(=O)N(c2ccc(C(C)C)cc2)C(C(=O)NCc2ccco2)c2ccc(C)cc2)cc1 (stereo unspecified), CCOc1ccc(C2C(=O)N(C3CCCCCC3)CC(=O)N2Cc2ccccc2)cc1OC (stereo unspecified), CCOC(=O)c1cccc(NC(=O)c2ncoc2-c2ccco2)c1, Cc1ccc(NC(=O)C2(C)Cc3ccccc3C(=O)O2)c(C)c1 (stereo unspecified), COc1ccc(CCNC(=O)c2ccc3c(c2)sc2nc(-c4ccccc4)cn23)cc1OC, Cc1cc(C)c(S(=O)(=O)NCCS(=O)(=O)N2CCN(c3ccccc3)CC2)c(C)c1, COc1cccc(NC(=O)C2CCN(c3ccc(Sc4ccc(C)cc4)nn3)CC2)c1, CCc1ccc2oc(-c3ccc(C)c(NC(=O)/C=C/c4ccco4)c3)nc2c1, COc1ccc(-c2cc(-c3ccc(C)cc3)nc3c2COc2ccccc2-3)cc1, Cc1nc(-c2ccc(S(=O)(=O)Nc3cc(Cl)ccc3C)cc2)co1, COc1ccc(CCNC(=O)c2ccc3c(c2)CCN3S(C)(=O)=O)cc1OC, CCC(Sc1nc2c(sc3ccccc32)c(=O)n1CCc1ccc(OC)c(OC)c1)C(=O)N(CC)CC (stereo unspecified), NS(=O)(=O)c1ccc(CCNC(=O)C2CCN(c3ncnc4c3nc3n4CCCCC3)CC2)cc1, Cc1ccc(CNC(=O)CCc2cn(C)c3ccccc23)cc1, CCOc1ccc(NC(=O)c2oc3ccccc3c2NC(=O)COc2cccc(OC)c2)cc1, CC(Sc1nccn1C)C(=O)Nc1ccccc1C#N (stereo unspecified), CC(=O)c1cccc(NC(=O)Nc2sc3nc4n(c(=O)c3c2C)CCC(C)CC4)c1 (stereo unspecified), O=C(CSc1n[nH]c(-c2ccccc2Cl)n1)NCCCc1ccccc1, COc1cc(-c2cc(OC)c3c(C)oc(C)c3c(=O)c2)ccc1OC(=O)c1ccc(C)cc1
